The supplement of paper PMC4967469

Tests used:
Experiment in all cases: Viability of human cancer cell lines after 72 h of drug (GDSC screen)
TPCA-1 = compound: NC(=O)Nc1sc(-c2ccc(F)cc2)cc1C(N)=O [TPCA-1]; details: top dose 20 µM
Protocol: (§1)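 Human cancer cell lines in 384-well plates, medium with 10% serum, drug for 72 h over a 256-fold dose range (nine 2-fold or five 4-fold steps up to the top dose). Adherent lines were fixed and stained with the nucleic acid dye Syto60, suspension lines read with resazurin; signal relative to control wells, capped at 0 and 100%. One two-parameter sigmoid per drug and line, fitted in a mixed model over all curves with the slope shared within a line.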

Y-39983 = compound: C[C@@H](N)c1ccc(C(=O)Nc2ccnc3[nH]ccc23)cc1 [Y-39983]; details: top dose 20 µM; top dose inferred
Protocol: as §1

PLX4720 = compound: CCCS(=O)(=O)Nc1ccc(F)c(C(=O)c2c[nH]c3ncc(Cl)cc23)c1F [PLX4720]; details: top dose 10 µM
Protocol: as §1

Epothilone B = compound: C/C(=C\c1csc(C)n1)[C@@H]1C[C@@H]2O[C@]2(C)CCC[C@H](C)[C@H](O)[C@@H](C)C(=O)C(C)(C)[C@@H](O)CC(=O)O1 [Epothilone B]; details: top dose 0.032 µM; top dose inferred
Protocol: as §1

PHA-793887 = compound: CC(C)CC(=O)Nc1n[nH]c2c1CN(C(=O)C1CCN(C)CC1)C2(C)C [PHA-793887]; details: top dose 10.24 µM
Protocol: as §1

[1] = screen: GDSC drug entry 1371, top dose inferred

Cell Line	AUC (TPCA-1)	IC50 (TPCA-1)	AUC (Y-39983)	IC50 (Y-39983)	AUC (PLX4720; screen: GDSC drug entry 1036)	IC50 (PLX4720; screen: GDSC drug entry 1036)	AUC (PLX4720; [1])	IC50 (PLX4720; [1])	AUC (Epothilone B)	IC50 (Epothilone B)	AUC (PHA-793887)	IC50 (PHA-793887)
NCI-H1437 (lung adenocarcinoma, adherent)	0.931	> 20 µM	0.973	> 20 µM	0.976	> 10 µM	0.983	> 10 µM	0.409	0.00112 µM	0.616	1.35 µM
NCI-H1563 (lung adenocarcinoma, adherent)	0.765	8.67 µM	0.971	> 20 µM	0.979	> 10 µM	0.974	> 10 µM	0.903	> 0.032 µM	0.917	> 10.2 µM
NCI-H1568 (lung adenocarcinoma, adherent)	0.914	> 20 µM	0.974	> 20 µM	0.97	> 10 µM	0.945	> 10 µM	0.495	0.00193 µM	0.907	> 10.2 µM
NCI-H1573 (lung adenocarcinoma, adherent)	0.945	> 20 µM	0.983	> 20 µM			0.989	> 10 µM	0.923	> 0.032 µM	0.983	> 10.2 µM
NCI-H1623 (lung adenocarcinoma, adherent)	0.945	> 20 µM	0.979	> 20 µM	0.985	> 10 µM	0.983	> 10 µM	0.79	0.0179 µM	0.961	> 10.2 µM
NCI-H1651 (lung adenocarcinoma, adherent)	0.982	> 20 µM	0.984	> 20 µM	0.977	> 10 µM	0.979	> 10 µM	0.607	0.00404 µM	0.987	> 10.2 µM
NCI-H1688 (small cell lung carcinoma, adherent)	0.688	4.46 µM	0.95	> 20 µM	0.962	> 10 µM	0.984	> 10 µM	0.86	0.0315 µM	0.928	> 10.2 µM
NCI-H1693 (lung adenocarcinoma, adherent)	0.802	18.2 µM	0.976	> 20 µM	0.957	> 10 µM	0.955	> 10 µM	0.89	> 0.032 µM	0.955	> 10.2 µM
NCI-H1703 (lung adenocarcinoma, adherent)	0.926	> 20 µM	0.977	> 20 µM	0.981	> 10 µM	0.974	> 10 µM	0.672	0.00672 µM	0.835	8.93 µM
NCI-H1755 (lung adenocarcinoma, adherent)	0.458	0.94 µM	0.984	> 20 µM	0.913	> 10 µM	0.954	> 10 µM	0.921	> 0.032 µM	0.984	> 10.2 µM
NCI-H1781 (lung adenocarcinoma, adherent)	0.956	> 20 µM	0.954	> 20 µM	0.989	> 10 µM	0.881	> 10 µM	0.795	0.0149 µM	0.989	> 10.2 µM
NCI-H1792 (lung adenocarcinoma, adherent)	0.862	14.4 µM	0.963	> 20 µM	0.985	> 10 µM	0.962	> 10 µM	0.696	0.00666 µM	0.98	> 10.2 µM
NCI-H1793 (lung adenocarcinoma, adherent)	0.963	> 20 µM	0.98	> 20 µM			0.968	> 10 µM	0.802	0.024 µM	0.982	> 10.2 µM
NCI-H1915 (large cell lung carcinoma, adherent)	0.908	> 20 µM	0.878	> 20 µM			0.965	> 10 µM	0.664	0.00579 µM	0.776	4.17 µM
NCI-H1944 (lung adenocarcinoma, adherent)	0.673	3.94 µM	0.918	> 20 µM	0.968	> 10 µM	0.984	> 10 µM	0.529	0.00241 µM	0.544	0.852 µM
NCI-H1993 (lung adenocarcinoma, adherent)	0.92	> 20 µM	0.961	> 20 µM	0.95	> 10 µM	0.973	> 10 µM	0.887	> 0.032 µM	0.92	> 10.2 µM
NCI-H2009 (lung adenocarcinoma, adherent)	0.932	> 20 µM	0.982	> 20 µM	0.952	> 10 µM	0.965	> 10 µM	0.366	0.000835 µM	0.986	> 10.2 µM
NCI-H2029 (small cell lung carcinoma, adherent)	0.949	> 20 µM	0.981	> 20 µM			0.992	> 10 µM	0.989	> 0.032 µM	0.927	> 10.2 µM
NCI-H2030 (lung adenocarcinoma, adherent)	0.794	10.7 µM	0.938	> 20 µM	0.982	> 10 µM	0.934	> 10 µM	0.367	0.000811 µM	0.783	4.94 µM
NCI-H2052 (mesothelioma, adherent)	0.954	> 20 µM	0.966	> 20 µM	0.982	> 10 µM			0.941	> 0.032 µM	0.971	> 10.2 µM
NCI-H2085 (lung adenocarcinoma, adherent)	0.81	11.6 µM	0.936	> 20 µM	0.97	> 10 µM	0.985	> 10 µM	0.701	0.00775 µM	0.936	> 10.2 µM
NCI-H2087 (lung adenocarcinoma, semi-adherent)	0.83	13.9 µM	0.986	> 20 µM	0.97	> 10 µM	0.957	> 10 µM	0.577	0.00331 µM	0.795	5.17 µM

Cell Line	AUC (TPCA-1)	IC50 (TPCA-1)	AUC (Y-39983)	IC50 (Y-39983)	AUC (PLX4720; screen: GDSC drug entry 1036)	IC50 (PLX4720; screen: GDSC drug entry 1036)	AUC (PLX4720; [1])	IC50 (PLX4720; [1])	AUC (Epothilone B)	IC50 (Epothilone B)	AUC (PHA-793887)	IC50 (PHA-793887)
NCI-H2110 (non-small cell lung carcinoma, adherent)	0.783	8.67 µM	0.81	10.9 µM	0.95	> 10 µM	0.985	> 10 µM	0.525	0.00234 µM	0.676	2.01 µM
NCI-H2122 (lung adenocarcinoma, adherent)	0.952	> 20 µM	0.979	> 20 µM			0.834	5.96 µM	0.259	0.000431 µM	0.933	> 10.2 µM
NCI-H2170 (lung squamous cell carcinoma, adherent)	0.958	> 20 µM	0.98	> 20 µM			0.981	> 10 µM	0.551	0.00277 µM	0.951	> 10.2 µM
NCI-H2172 (non-small cell lung carcinoma, adherent)	0.911	> 20 µM	0.972	> 20 µM	0.977	> 10 µM	0.981	> 10 µM	0.981	> 0.032 µM	0.983	> 10.2 µM
NCI-H2291 (lung adenocarcinoma, adherent)	0.98	> 20 µM	0.966	> 20 µM	0.979	> 10 µM	0.982	> 10 µM	0.975	> 0.032 µM	0.984	> 10.2 µM
NCI-H2342 (lung adenocarcinoma, adherent)	0.955	> 20 µM	0.986	> 20 µM	0.969	> 10 µM	0.959	> 10 µM	0.349	0.00073 µM	0.984	> 10.2 µM
NCI-H2347 (lung adenocarcinoma, adherent)	0.876	> 20 µM	0.983	> 20 µM	0.982	> 10 µM	0.979	> 10 µM	0.856	> 0.032 µM	0.905	> 10.2 µM
NCI-H2405 (lung adenocarcinoma, adherent)	0.879	> 20 µM	0.955	> 20 µM	0.981	> 10 µM	0.966	> 10 µM	0.666	0.00613 µM	0.931	> 10.2 µM
NCI-H2444 (non-small cell lung carcinoma, adherent)	0.967	> 20 µM	0.988	> 20 µM	0.987	> 10 µM	0.987	> 10 µM	0.951	> 0.032 µM	0.988	> 10.2 µM
NCI-H2452 (mesothelioma, adherent)	0.98	> 20 µM	0.981	> 20 µM	0.954	> 10 µM	0.901	> 10 µM	0.929	> 0.032 µM	0.984	> 10.2 µM
NCI-H3122 (lung adenocarcinoma, adherent)	0.939	> 20 µM	0.915	> 20 µM	0.972	> 10 µM	0.985	> 10 µM	0.402	0.00107 µM	0.719	2.73 µM
NUGC-3 (stomach, adherent)	0.946	> 20 µM	0.959	> 20 µM	0.882	> 10 µM	0.957	> 10 µM	0.429	0.00125 µM	0.926	> 10.2 µM
NUGC-4 (stomach, adherent)	0.613	2.56 µM	0.856	16.2 µM	0.988	> 10 µM	0.986	> 10 µM	0.554	0.00282 µM	0.973	> 10.2 µM
NY (osteosarcoma, adherent)	0.951	> 20 µM	0.984	> 20 µM	0.915	> 10 µM	0.89	> 10 µM	0.509	0.00212 µM	0.978	> 10.2 µM
OAW-28 (ovary, adherent)	0.739	7.38 µM	0.983	> 20 µM	0.933	> 10 µM	0.964	> 10 µM	0.687	0.00774 µM	0.938	> 10.2 µM
OAW-42 (ovary, adherent)	0.966	> 20 µM	0.982	> 20 µM	0.961	> 10 µM	0.978	> 10 µM	0.505	0.00207 µM	0.876	> 10.2 µM
OCUM-1 (stomach, adherent)	0.977	> 20 µM	0.971	> 20 µM	0.975	> 10 µM	0.985	> 10 µM	0.808	0.0188 µM	0.931	> 10.2 µM
OE19 (oesophagus, adherent)	0.986	> 20 µM	0.985	> 20 µM	0.975	> 10 µM	0.985	> 10 µM	0.602	0.00397 µM	0.986	> 10.2 µM
OE21 (oesophagus, adherent)	0.906	> 20 µM	0.963	> 20 µM	0.965	> 10 µM	0.914	> 10 µM	0.58	0.00358 µM	0.949	> 10.2 µM
OE33 (oesophagus, adherent)	0.981	> 20 µM	0.971	> 20 µM	0.976	> 10 µM	0.982	> 10 µM	0.673	0.00673 µM	0.924	> 10.2 µM
OSC-19 (head and neck, adherent)	0.882	> 20 µM	0.978	> 20 µM	0.972	> 10 µM	0.984	> 10 µM	0.386	0.00096 µM	0.916	> 10.2 µM

IC50 is the fitted dose that halves viability relative to control wells, and lower means more sensitive; a fit beyond the top or the lowest dose is shown as a bound at that dose. AUC is the area under the same curve over the 256-fold range up to the top dose, as a fraction; it is 1 without any effect and falls as sensitivity rises. For some of these results: Where the top dose is marked as inferred, it was calculated from the reported fits. For some of these results: Drugs with an entry number were screened twice under separate entries, and the two screens often disagree.
